Results taken from the supplement of paper PMC12217912.
The other results are listed elsewhere or left out. The full chains were built here from the parent and the listed change. Values near 0.05 are background.

B1: TEV protease; numbered along this chain (parent)
chain: MGESLFKGPRDYNPISSSICHLTNESDGHTTSLYGIGFGPFIITNKHLFRRNNGTLVVQSLHGVFKVKDTTTLQQHLVDGRDMIIIRMPKDFPPFPQKLKFREPQREERICLVTTNFQTKSMSSMVSDTSCTFPSGDGIFWKHWIQTKDGQCGSPLVSTRDGFIVGIHSASNFTNTNNYFTSVPKNFMELLTNQEAQQWVSGWRLNADSVLWGGHKVFMVKPEEPFQPVKEATQL

Variants of: B1
Assay: raw area under fraction-flipped curve 0-4 h after induction (AUC4h, not background-subtracted), DNA-recorder readout of cleavage of the substrate (dimensionless); higher = more cleavage of the substrate by the protease variant
Details: temperature: 34 °C; time window: 0-4 h after rhamnose induction
Experimental: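 In vivo DNA recorder in E. coli TOP10(DE3) ΔrhaA at 34 °C. Each TEVp single-site mutant (parent TEVp 0) is paired with a single-site variant of the 7-mer TEVs (canonical ENLYFQ|S). The substrate sits between flexible linkers in a Bxb1-sfGFP-TEVs-SsrA fusion, so cleavage stabilises Bxb1 and speeds flipping of a recombination array, read by NGS. The value is the raw area under the fraction-flipped curve over 0-4 h after rhamnose induction (AUC4h), with ≥20 reads per time point. It is not background-subtracted; inactive controls average about 0.047.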
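Further: Bxb1 expression induced with 0.2% (w/v) L-rhamnose at OD600 near 0.5, cultures sampled hourly, flipped fraction per protease–substrate barcode pair counted by paired-end Illumina sequencing.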

| Variant | area with substrate HNLYFQS | area with substrate MNLYFQS | area with substrate YNLYFQS | area with substrate NNLYFQS | area with substrate SNLYFQS | area with substrate VNLYFQS | area with substrate INLYFQS | area with substrate LNLYFQS | area with substrate TNLYFQS | area with substrate GNLYFQS |
| --- | --- | --- | --- | --- | --- | --- | --- | --- | --- | --- |
| MNESLFKGPRDYNPISSSICHLTNESDGHTTSLYGIGFGPFIITNKHLFRRNNGTLVVQSLHGVFKVKDTTTLQQHLVDGRDMIIIRMPKDFPPFPQKLKFREPQREERICLVTTNFQTKSMSSMVSDTSCTFPSGDGIFWKHWIQTKDGQCGSPLVSTRDGFIVGIHSASNFTNTNNYFTSVPKNFMELLTNQEAQQWVSGWRLNADSVLWGGHKVFMVKPEEPFQPVKEATQL [G2N] | 0.0988 | 0.0751 | 0.0409 | – | – | – | – | – | – | – |
| MTESLFKGPRDYNPISSSICHLTNESDGHTTSLYGIGFGPFIITNKHLFRRNNGTLVVQSLHGVFKVKDTTTLQQHLVDGRDMIIIRMPKDFPPFPQKLKFREPQREERICLVTTNFQTKSMSSMVSDTSCTFPSGDGIFWKHWIQTKDGQCGSPLVSTRDGFIVGIHSASNFTNTNNYFTSVPKNFMELLTNQEAQQWVSGWRLNADSVLWGGHKVFMVKPEEPFQPVKEATQL [G2T] | 0.0595 | – | – | 0.0267 | 0.0731 | 0.0792 | – | – | – | – |
| MHESLFKGPRDYNPISSSICHLTNESDGHTTSLYGIGFGPFIITNKHLFRRNNGTLVVQSLHGVFKVKDTTTLQQHLVDGRDMIIIRMPKDFPPFPQKLKFREPQREERICLVTTNFQTKSMSSMVSDTSCTFPSGDGIFWKHWIQTKDGQCGSPLVSTRDGFIVGIHSASNFTNTNNYFTSVPKNFMELLTNQEAQQWVSGWRLNADSVLWGGHKVFMVKPEEPFQPVKEATQL [G2H] | 0.0695 | – | 0.0662 | – | – | 0.0536 | 0.0058 | 0.072 | 0.105 | – |
| MGESLFKGPRDYNPISSSICHLTNESDGHTTSLYGIGFGPFIITNKHLFRRNNGTLVVQSLHGVFKVKDTTTLQQHLVDGRDMIIIRMPKDFPPFPQKLKFREPQREERICLVTTNFQTKSMSSMVSDTSCTFPSGDGIFWKHWIQTKDGQCGSPLVSTRDGFIVGIHSASNFTNTNNYFTSVPKNFMELLTNQEAQQWVSGWRLNADSVLWGGHKVFMVKPEEPFQPVKEAPQL [T233P] | – | 0.0646 | – | – | 0.0761 | – | – | – | 0.0641 | 0.0756 |
| MGVSLFKGPRDYNPISSSICHLTNESDGHTTSLYGIGFGPFIITNKHLFRRNNGTLVVQSLHGVFKVKDTTTLQQHLVDGRDMIIIRMPKDFPPFPQKLKFREPQREERICLVTTNFQTKSMSSMVSDTSCTFPSGDGIFWKHWIQTKDGQCGSPLVSTRDGFIVGIHSASNFTNTNNYFTSVPKNFMELLTNQEAQQWVSGWRLNADSVLWGGHKVFMVKPEEPFQPVKEATQL [E3V] | 0.0662 | 0.0716 | 0.0731 | – | – | – | – | – | 0.0721 | – |
| MGESLFKGPRDYNPISSSICHLTNESDGHTTSLYGIGFGPFIITNKHLFRRNNGTLVVQSLHGVFKVKDTTTLQQHLVDGRDMIIIRMPKDFPPFPQKLKFREPQREERICLVTTNFQTKSMSSMVSDTSCTFPSGDGIFWKHWIQTKDGQCGSPLVSTRDGFIVGIHSASNFTNTNNYFTSVPKNFMELLTNQEAQQWVSGWRLNADSVIWGGHKVFMVKPEEPFQPVKEATQL [L211I] | – | – | – | – | 0.0603 | – | – | – | – | 0.08 |
| MGESLFKGPRDYNPISSSICHLTNESDGHTTSLYGIGFGPFIITNKHLFRRNNGTLVVQSLHGVFKVKDTTTLQQHLVDGRDMIIIRMPKDFPPFPQKLKFREPQREERICLVTTNFQTKSMSSMVSDTSCTFPSGDGIFWKHWIQTKDGQCGSPLVSTRDGFIVGIHSASNFTNTNNYFTSVPKNFMELLTNQEAQQWVSGWRLNADSVNWGGHKVFMVKPEEPFQPVKEATQL [L211N] | 0.125 | – | 0.0886 | 0.0463 | 0.0689 | – | 0.0814 | 0.0686 | 0.0647 | 0.0601 |
| MGESLFYGPRDYNPISSSICHLTNESDGHTTSLYGIGFGPFIITNKHLFRRNNGTLVVQSLHGVFKVKDTTTLQQHLVDGRDMIIIRMPKDFPPFPQKLKFREPQREERICLVTTNFQTKSMSSMVSDTSCTFPSGDGIFWKHWIQTKDGQCGSPLVSTRDGFIVGIHSASNFTNTNNYFTSVPKNFMELLTNQEAQQWVSGWRLNADSVLWGGHKVFMVKPEEPFQPVKEATQL [K7Y] | 0.0707 | – | 0.0543 | – | – | – | 0.0613 | 0.0776 | – | – |
| MGESLFKGPRDYNPISSSICHLTNESDGHTTSLYGIGFGPFIITNKHLFRRNNGTLVVQSLHGVFKVKDTTTLQQHLVDGRDMIIIRMPKDFPPFPQKLKFREPQREERICLVTTNFQTKSMSSMVSDTSCTFPSGDGIFWKHWIQTKDGQCGSPLVSTRDGFIVGIHSASNFTNTNNYFTSVPKNFMELLTNQEAQQWVSGWRLNADSVLWGGHKVFMVKPEEPFQPVKIATQL [E231I] | 0.0606 | – | 0.0536 | 0.0605 | 0.0519 | 0.0615 | 0.0656 | 0.061 | 0.0639 | 0.0572 |
| MGESLFKGPRTYNPISSSICHLTNESDGHTTSLYGIGFGPFIITNKHLFRRNNGTLVVQSLHGVFKVKDTTTLQQHLVDGRDMIIIRMPKDFPPFPQKLKFREPQREERICLVTTNFQTKSMSSMVSDTSCTFPSGDGIFWKHWIQTKDGQCGSPLVSTRDGFIVGIHSASNFTNTNNYFTSVPKNFMELLTNQEAQQWVSGWRLNADSVLWGGHKVFMVKPEEPFQPVKEATQL [D11T] | 0.0611 | 0.083 | 0.0783 | – | – | – | – | 0.0602 | 0.0616 | – |
| MGESHFKGPRDYNPISSSICHLTNESDGHTTSLYGIGFGPFIITNKHLFRRNNGTLVVQSLHGVFKVKDTTTLQQHLVDGRDMIIIRMPKDFPPFPQKLKFREPQREERICLVTTNFQTKSMSSMVSDTSCTFPSGDGIFWKHWIQTKDGQCGSPLVSTRDGFIVGIHSASNFTNTNNYFTSVPKNFMELLTNQEAQQWVSGWRLNADSVLWGGHKVFMVKPEEPFQPVKEATQL [L5H] | 0.0634 | – | 0.0327 | – | – | 0.0701 | – | 0.0636 | 0.0659 | – |

Same assay, conditions: temperature: 34 °C; time window: 0-4 h after rhamnose induction

| Variant | area with substrate WNLYFQS | area with substrate QNLYFQS | area with substrate PNLYFQS | area with substrate KNLYFQS |
| --- | --- | --- | --- | --- |
| MGESLFKGPRDYNPISSSICHLTNESDGHTTSLYGIGFGPFIITNKHLFRRNNGTLVVQSLHGVFKVKDTTTLQQHLVDGRDMIIIRMPKDFPPFPQKLKFREPQREERICLVTTNFQTKSMSSMVSDTSCTFPSGDGIFWKHWIQTKDGQCGSPLVSTRDGFIVGIHSASNFTNTNNYFTSVPKNFMELLTNQEAQQWVSGWRLNADSVLWGGHKVFMVKPEEPFQPVKEAPQL [T233P] | 0.052 | – | – | – |
| MGVSLFKGPRDYNPISSSICHLTNESDGHTTSLYGIGFGPFIITNKHLFRRNNGTLVVQSLHGVFKVKDTTTLQQHLVDGRDMIIIRMPKDFPPFPQKLKFREPQREERICLVTTNFQTKSMSSMVSDTSCTFPSGDGIFWKHWIQTKDGQCGSPLVSTRDGFIVGIHSASNFTNTNNYFTSVPKNFMELLTNQEAQQWVSGWRLNADSVLWGGHKVFMVKPEEPFQPVKEATQL [E3V] | 0.0662 | – | – | – |
| MGESLFKGPRDYNPISSSICHLTNESDGHTTSLYGIGFGPFIITNKHLFRRNNGTLVVQSLHGVFKVKDTTTLQQHLVDGRDMIIIRMPKDFPPFPQKLKFREPQREERICLVTTNFQTKSMSSMVSDTSCTFPSGDGIFWKHWIQTKDGQCGSPLVSTRDGFIVGIHSASNFTNTNNYFTSVPKNFMELLTNQEAQQWVSGWRLNADSVIWGGHKVFMVKPEEPFQPVKEATQL [L211I] | 0.0712 | 0.0657 | – | – |
| MGESLFKGPRDYNPISSSICHLTNESDGHTTSLYGIGFGPFIITNKHLFRRNNGTLVVQSLHGVFKVKDTTTLQQHLVDGRDMIIIRMPKDFPPFPQKLKFREPQREERICLVTTNFQTKSMSSMVSDTSCTFPSGDGIFWKHWIQTKDGQCGSPLVSTRDGFIVGIHSASNFTNTNNYFTSVPKNFMELLTNQEAQQWVSGWRLNADSVNWGGHKVFMVKPEEPFQPVKEATQL [L211N] | 0.0604 | 0.0872 | 0.0692 | – |
| MGESLFKGPRDYNPISSSICHLTNESDGHTTSLYGIGFGPFIITNKHLFRRNNGTLVVQSLHGVFKVKDTTTLQQHLVDGRDMIIIRMPKDFPPFPQKLKFREPQREERICLVTTNFQTKSMSSMVSDTSCTFPSGDGIFWKHWIQTKDGQCGSPLVSTRDGFIVGIHSASNFTNTNNYFTSVPKNFMELLTNQEAQQWVSGWRLNADSVLWGGHKVFMVKPEEPFQPVKIATQL [E231I] | 0.0694 | – | 0.0559 | 0.0557 |
| MGESLFKGPRTYNPISSSICHLTNESDGHTTSLYGIGFGPFIITNKHLFRRNNGTLVVQSLHGVFKVKDTTTLQQHLVDGRDMIIIRMPKDFPPFPQKLKFREPQREERICLVTTNFQTKSMSSMVSDTSCTFPSGDGIFWKHWIQTKDGQCGSPLVSTRDGFIVGIHSASNFTNTNNYFTSVPKNFMELLTNQEAQQWVSGWRLNADSVLWGGHKVFMVKPEEPFQPVKEATQL [D11T] | 0.0579 | – | 0.0636 | – |
| MGESHFKGPRDYNPISSSICHLTNESDGHTTSLYGIGFGPFIITNKHLFRRNNGTLVVQSLHGVFKVKDTTTLQQHLVDGRDMIIIRMPKDFPPFPQKLKFREPQREERICLVTTNFQTKSMSSMVSDTSCTFPSGDGIFWKHWIQTKDGQCGSPLVSTRDGFIVGIHSASNFTNTNNYFTSVPKNFMELLTNQEAQQWVSGWRLNADSVLWGGHKVFMVKPEEPFQPVKEATQL [L5H] | 0.0659 | – | 0.0737 | – |
